Measured values from PubChem BioAssay AID1745845 (National Center for Advancing Translational Sciences (NCATS), 2022).
In all, about 360,000 compounds went through this assay and about 2,600 (0.72%) were called active. Inconclusive results, whose numbers are uncertain, are shown with a selection of clear calls. Calls follow the shape of the dose curve; as a rule, active = well fitted inhibition curve with a large enough effect; inconclusive = small, poorly fitted or top-dose-only effect; inactive = no such curve, though single readings can be large or run the other way. Potencies beside an inconclusive call are fits to weak or partial responses and may not hold up.

test: Primary qHTS for Inhibitors of ATXN expression; details: HEK-293 ATXN2-luciferase reporter, luminescence, 24 h; activity change, negative = inhibition: at 57 µM (top of the series); also: nearly all actives have a fitted effect of over 55% in size
Method in brief: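 qHTS (up to 57 uM final) was run with 24 h compound exposure of reporter cells at 37 °C. Each well was multiplexed: SteadyGlo luminescence measured ATXN2-luciferase expression after a fluorogenic Gly-Phe-AFC viability readout (25 uM final).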
% is scaled to controls: 0 for no effect and ±100 for the full control effect; potency is read from the fitted curve at half-maximal effect; tags tell the direction and shape of the fitted curve.

Activity change, negative = inhibition, inactive:
COc1ccc([N+](=O)[O-])cc1NC(=O)C(C)c1ccccc1 (centres undefined) -6.82%, Cc1cc(C)c(NC(=O)C(C)n2c(=O)cc(C)c3c(C)nn(-c4ccccc4)c32)c(C)c1 (centres undefined) 0.324%, OC1CCC(Nc2ncnc3sccc23)CC1 (centres undefined) 0.782%, CN1CCN(CCOC2Cc3ccccc3Sc3ccc(Cl)cc32)CC1 (centres undefined) -15.7%, CCOc1ccccc1N1CC(C(=O)N(Cc2nnc(-c3ccccc3Cl)o2)C2CC2)CC1=O (centres undefined) 11.3%, CSc1ccc(CCNC(=O)CCc2c(C)nc3c(c(C)nn3-c3ccc(C)c(C)c3)c2C)cc1 11%, CCOC(=O)C1=C(C)NC(C)=C(C(=O)OCC)C1/C=C/c1ccccc1OC -8.99%, CC(NC(=O)Cn1cccc1)c1ccccc1 (centres undefined) 5.84%, CCOc1ccccc1OCCn1ncc2ccc(OC)c(OC)c2c1=O 7.39%, CCN(CC(=O)NCc1ccc(F)cc1)C(=O)/C=C/c1ccc(S(=O)(=O)N(CC)CC)cc1 -21.7%, COc1ccc(/C=C2\CN(Cc3ccccc3)C/C(=C\c3ccc(OC)cc3OC)C2=O)c(OC)c1 -25.7%, Cc1[nH]c2ccccc2c1/C=N/Nc1ccc([N+](=O)[O-])cc1 6.9%, CCCCN(CCCC)CCNC(=O)c1cn(CC)c2ccc(S(=O)(=O)N3CCc4ccccc4C3)cc2c1=O -14.9%, CC1CN(C(=O)c2ccc(S(=O)(=O)Nc3ccccc3F)cc2)CC(C)O1 (centres undefined) 5.58%

Activity change, negative = inhibition, inconclusive:
Oc1ccc(Br)cc1-c1ccnn1-c1ccccc1 -45% [inhibitor], Cc1nn(C)cc1C(C(=O)NC1CCCCC1)N(CCc1ccccc1)C(=O)c1cnccn1 (centres undefined) -43.4% [inhibitor]

Potency, inconclusive:
Cc1cc2c(cc1C)C(c1ccsc1)CC(=O)N2 (centres undefined) 18.9 µM [inhibitor, single point], Cc1cccc(C2CC3(CC(C)(C)NC(=S)N3)Oc3cc(O)ccc32)c1 (centres undefined) 39.8 µM [inhibitor, partial curve, poor fit], COc1cccc(/C=C/C(=O)c2ccc(NS(=O)(=O)c3ccc(C)cc3)cc2)c1 31.6 µM [inhibitor, single point], Cc1cc2oc3cc(NCCC4CCCN4C)ccc3c(=O)c2cc1C (centres undefined) 39.8 µM [inhibitor, single point], COc1ccc(C)cc1Nc1n[n+](-c2ccccc2)c(-c2c(OC)ccc3ccccc23)s1 28.2 µM [inhibitor, partial curve], CCOc1cccc(NC(=O)C2CC(=O)N(C)C(=Nc3cccc(OC)c3)S2)c1 (centres undefined) 39.8 µM [inhibitor, single point], COC(=O)c1ccc(COC(=O)c2ccc(S(=O)(=O)N3CCC(C)CC3)cc2)o1 28.2 µM [inhibitor, partial curve, poor fit], CCC(=O)OCC(=O)[C@@]1(OC(=O)CC)[C@@H](C)C[C@@H]2[C@H]3CCC4=CC(=O)C=C[C@]4(C)[C@@]3(F)[C@@H](O)C[C@@]21C 9.68 µM [inhibitor, full curve], CC1=C(C(=O)OCc2ccc3c(c2)OCO3)C(c2ccc(Cl)cc2)NC(=O)N1 (centres undefined) 12.6 µM [inhibitor, partial curve, poor fit], O=C(c1ccccc1)c1ccc(OCCOCCN2CCN(Cc3ccccc3)CC2)cc1 6.7 µM [inhibitor, partial curve, poor fit], CC1=C(C)C(=O)C(N2CCOCC2)=CC1=O 0.891 µM [inhibitor, partial curve, poor fit], CCC(C)NC(=O)NC(=O)CSc1nnc(-c2ccccc2F)n1C1CC1 (centres undefined) 3.98 µM [inhibitor, single point], Cc1cc(C)c(C(CC(=O)c2cccs2)C(C#N)C#N)c(C)c1 (centres undefined) 39.8 µM [inhibitor, single point], Cc1cc2[nH]c3c(c[n+](C)c4ccccc34)c2cc1C 20 µM [inhibitor, partial curve, poor fit], COC(=O)c1ccc(NC(=O)CCc2c(C)nc3c(-c4ccccc4)c(C)nn3c2C)cc1 39.8 µM [inhibitor, single point], Cc1cccc(C(=O)O/N=C(\N)c2ccccn2)c1 4.47 µM [inhibitor, partial curve, poor fit], CCOc1ccc2nc(NC(=O)CSc3nc4c(c(=O)n(C)c(=O)n4C)n3C(C)C)sc2c1 39.8 µM [inhibitor, single point], CCCN(CCC)CCNC(=O)c1cc2c(-c3ccc(Cl)cc3)nn(C)c2s1 35.5 µM [inhibitor, single point], CS(=O)(=O)N(Cc1ccccc1)c1ccc(C(=O)N2CCN(c3cccc(Cl)c3)CC2)cc1 25.1 µM [inhibitor, partial curve, poor fit], Cc1cc(C(=O)CN2CCC(C)CC2)c(C)n1-c1ccccc1F 17.8 µM [inhibitor, single point], N#Cc1cc(C#N)c(N2CCN(c3cccc(Cl)n3)CC2)nc1N 39.8 µM [inhibitor, single point], CCCCCCCCCCCCCCCC[n+]1ccc(C(N)=O)cc1 22.4 µM [inhibitor, partial curve, poor fit], Oc1ccc(N2CCN(C(=S)NCc3ccccc3)CC2)cc1 25.1 µM [inhibitor, partial curve, poor fit], O=C(OCc1cn([C@@H]2C[C@H](c3ccc(Cl)cc3)N(C(=O)C3CCCCC3)C[C@H]2O)nn1)c1ccccc1 31.6 µM [inhibitor, single point], COc1ccc(NC(=O)c2ccccn2)cc1 12.6 µM [inhibitor, partial curve, poor fit], CCc1ccc(C(=O)Nc2nnn(CC)n2)cc1 28.2 µM [inhibitor, single point], CCOCCn1c(CN2CCN(c3cccc(Cl)c3)CC2)nc2c1c(=O)n(C)c(=O)n2C 0.844 µM [inhibitor, partial curve, poor fit], COc1cc(CNCCSc2nnnn2C)cc(Br)c1OCc1ccc(F)cc1 33.6 µM [inhibitor, single point], Cc1ccccc1C(=O)Nc1ccc(C(=O)NNC(=O)CCCOc2ccc(Cl)cc2Cl)cc1 15.8 µM [inhibitor, partial curve, poor fit], COc1ccc(Cl)cc1S(=O)(=O)N1CCN(C(=O)c2n[nH]c(=O)c3ccccc23)CC1 31.6 µM [inhibitor, partial curve, poor fit], COc1cc(C(=O)NCc2ccc(-c3nc4ccccc4s3)cc2)cc(OC)c1OC 39.8 µM [inhibitor, single point], N#CCCN(C(=O)CCl)c1cccc(Cl)c1 8.44 µM [inhibitor, partial curve, poor fit], O=C(c1ccc(S(=O)(=O)c2ccccc2Cl)c([N+](=O)[O-])c1)N1CCCCCC1 28.2 µM [inhibitor, partial curve, poor fit], O=c1[nH]c(=S)[nH]c2c1C(c1ccc(Cl)c(Cl)c1)OC(CCc1ccccc1)C2 (centres undefined) 14.1 µM [inhibitor, single point], c1ccc(COc2ncnc3c2ncn3CCCNCC(c2ccccc2)c2ccccc2)cc1 39.8 µM [inhibitor, single point], OC(COC(c1ccc(Cl)cc1)c1ccc(Cl)cc1)CN1CCN(c2ccccn2)CC1 (centres undefined) 15.8 µM [inhibitor, partial curve, poor fit], COc1cccc(CN(C)C(=O)c2cc(COc3ccc4ncccc4c3)on2)c1 23.8 µM [inhibitor, partial curve, poor fit], CN(c1ccccc1)S(=O)(=O)c1ccc(C(=O)Nc2nnc(-c3ccc(F)cc3)o2)cc1 25.1 µM [inhibitor, single point], COc1cccc(-c2nnc(NC(=O)c3ccc(S(=O)(=O)N(CC(C)C)CC(C)C)cc3)o2)c1 15.8 µM [inhibitor, partial curve], CC(=O)Oc1cc2c(cc1Cl)C1(CC(c3ccccc3Cl)O2)CC(C)(C)NC(=S)N1 (centres undefined) 31.6 µM [inhibitor, single point], CCOc1ccc(S(=O)(=O)N(C(=O)c2ccco2)c2cc3sc(=O)oc3c3ccccc23)cc1 15.8 µM [inhibitor, partial curve, poor fit]

Potency, active:
O=[N+]([O-])c1cccc2nc3ccccc3c(NCCCn3ccnc3[N+](=O)[O-])c12 0.267 µM, CCOC(=O)/C(=C\c1ccc([N+](=O)[O-])cc1)C(=O)c1cc(C(C)=O)c(Nc2ccccc2)s1 8.91 µM, CC1C(=O)C(C)C(c2cc(Cl)ccc2O)NC1c1cc(Cl)ccc1O (centres undefined) 25.1 µM, Cc1ccc(C(=O)Nc2cnc3ccccc3c2)cc1 2.24 µM, COc1ccc(-c2cn3nc4c(nc3n2)CCCC4)cc1 15.8 µM, Cc1ccc(OCC(=O)Nc2ccc(Cl)cc2)c(-n2nc3ccccc3n2)c1 35.5 µM, CC1(C)C(N(O)C(=O)Nc2ccc(Cl)cc2)N(c2ccc(Cl)cc2)C(=O)N1CC(=O)NN=CC=Cc1ccc([N+](=O)[O-])o1 (centres undefined) 34.3 µM
